From the supplement of paper PMC3334620
Over roughly 33,000 sequences, “E-score (-0.5 to 0.5)” has its median near -0.01; the highest 2% begin near 0.26. Some of the results follow.

target: Ste12 (UniProt P13574); assay: PBM E-score (8-mer binding enrichment) (E-score (-0.5 to 0.5)); higher = stronger / more preferred TF binding; most listed sequences are background and not binding sites; details: protein concentration: 200 nM; construct: GST-DNA-binding domain
Protocol: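 Universal 'all 10-mer' protein binding microarrays (Agilent AMADID 015681) probed with GST-tagged S. cerevisiae TFs (full-length or DBD) made by in vitro transcription/translation (PURExpress), about 100-200 nM. Bound TF was detected with fluorescent anti-GST. Each ungapped 8-mer (which stands for itself and its reverse complement) is scored by the PBM enrichment score (E-score), a modified Wilcoxon-Mann-Whitney statistic from -0.5 to +0.5, computed with the Universal PBM Analysis Suite. Scale: above 0.35 generally sequence-specific binding.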

Row | Sequence | PBM E-score
1 | TGGCTACA | 0.0979
2 | CAAACAAA | 0.149
3 | AAGGGAGA | -0.187
4 | CACCTTGC | -0.0458
5 | AGCGTCGA | 0.0364
6 | CAAACAGC | 0.123
7 | GGTTGGAC | -0.193
8 | CGACGGTC | -0.0211
9 | AAGTGCTA | -0.166
10 | AGCTTTCA | -0.0262
11 | ACCCCGAT | 0.107
12 | AATGGCCA | -0.117
13 | ACTCCTAA | -0.0995
14 | ACTGCGTA | -0.302
15 | ATAACATA | 0.175
16 | CGCCCGAG | -0.0373
17 | CTGGGTAA | 0.0362
18 | TCCACTAA | 0.0618
19 | AAGGGCCA | -0.0964
20 | CGCGCAAA | 0.225
21 | AACACAAT | 0.1
22 | ATTGTACG | -0.213
23 | GTCCAGTA | -0.0658
24 | GAAACTAA | 0.182
25 | GCTATGAA | 0.033

Row | Sequence | PBM E-score
26 | CTGCCCCA | -0.0138
27 | ATCGGGTG | 0.123
28 | ATACACGC | -0.0811
29 | AATCCGCA | 0.166
30 | AAGGTATC | -0.0647
31 | CTATGGTC | -0.0835
32 | CTGGCGTA | -0.108
33 | ACGCTTTC | 0.0906
34 | CTGGCATC | -0.283
35 | AGGGCCTA | -0.151
36 | AATGTGCT | -0.0631
37 | TCCGGTCA | -0.256
38 | AAGAAAAG | 0.302
39 | TCGTACAA | -0.0975
40 | CCAAGCCA | -0.164
41 | AATAACAA | 0.0464
42 | GAAGGCCA | -0.00112
43 | CACTACTG | -0.11
44 | ACAAGCCG | -0.1
45 | GAACACGA | 0.0114
46 | GGTTCAAC | -0.0421
47 | AAGATAGT | 0.0884
48 | TCGACACA | 0.146
49 | ATAGAGTA | 0.0755
50 | GGTGCGAA | 0.2

Row | Sequence | PBM E-score
51 | ACCATTCA | 0.0908
52 | ACAGCCGC | 0.0234
53 | CAACGCGG | -0.0344
54 | ATTGACCG | 0.0853
55 | CCCAGATA | -0.0876
56 | ATCTTATA | 0.0647
57 | CCAGCTCA | -0.194
58 | ACTTTGTC | 0.0571
59 | CACTACCG | -0.167
60 | CCGGCTGA | 0.0715
61 | GGGGCGTA | 0.282
62 | CGGTTTAG | -0.00848
63 | AGCAGAAT | 0.148
64 | GGGTGACA | -0.149
65 | AGTCGGAA | 0.106
66 | TCCAGCAA | -0.145
67 | TAAACACA | 0.175
68 | ATGTCAAC | -0.0625
69 | AGGATCCG | -0.23
70 | ACAAAGCC | 0.051
71 | AGGTTCGA | 0.0869
72 | AATGATTG | 0.182
73 | AGATCGGG | -0.0473
74 | GCGTCGGA | 0.203
75 | ATAAAAGA | 0.0538

Row | Sequence | PBM E-score
76 | GCTCTAAA | -7e-05
77 | CCTATTCC | 0.0843
78 | CTACGATA | 0.0831
79 | GTGGCGCA | 0.0163
80 | TCCTGAAA | 0.25
81 | AGGTTATC | -0.095
82 | CCGTCCAC | 0.0274
83 | AGACTGTA | -0.113
84 | ATCACGTC | -0.137
85 | AATGAAAA | 0.292
86 | AATGGTGG | 0.0525
87 | ACTGTCGG | -0.199
88 | ACAGTATC | -0.0327
89 | AGCTAACT | -0.0183
90 | GAATCAGA | 0.201
91 | AGATAGAC | -0.174
92 | ATATATGC | 0.239
93 | ACGCTTGG | -0.293
94 | CTGCTTGA | -0.109
95 | CAAGATTC | -0.0244
96 | ATCTGGGA | -0.0311
97 | CAAGGGCG | -0.246
98 | CTCCTTCC | -0.168
99 | ACGCAGAT | -0.0413
100 | CGCGCATC | -0.00798

Row | Sequence | PBM E-score
101 | ATGAATAA | 0.0153
102 | GACGGACC | -0.134
103 | AGGGAACT | -0.0814
104 | GCTATGGA | -0.0305
105 | AGCTACGG | -0.168
106 | TCGCGAGA | 0.0787
107 | AATAACGG | 0.164
108 | GACGATGC | -0.137
109 | CCACCCAA | 0.0281
110 | GCAACACC | 0.0245
111 | CAAAGGAC | -0.217
112 | ATTTTTAA | 0.28
113 | CGATGGTA | -0.0983
114 | ACGCGCCA | -0.00466
115 | AGTCAAGC | -0.107
116 | CAACAAGG | 0.0782
117 | CTGTGCAC | -0.145
118 | AAAAATGA | 0.247
119 | CGAAACCG | 0.258
120 | CAACTATC | 0.164
121 | GCCACAGA | -0.252
122 | AATGGGCA | 0.0995
123 | CTCCATCA | -0.0062
124 | GGTGGCAC | -0.0283
125 | CTCCTGTC | -0.0854

Row | Sequence | PBM E-score
126 | ATAAGGAG | -0.00103
127 | GCCGTTAC | 0.0829
128 | TCTAATAA | 0.0364
129 | ACGTATGC | -0.099
130 | AGCCACCA | 0.0794
131 | ATATATAG | 0.184
132 | AAGGGTGG | -0.112
133 | ATTGAGGA | -0.041
134 | GATCAACC | -0.032
135 | TAAGAACA | 0.256
136 | ACACAGTG | -0.154
137 | GTTCTTTA | 0.0601
138 | GATACGCA | -0.0118
139 | GGCAAGAA | 0.0412
140 | GGGGCACA | 0.0337
141 | GAGCAGGA | -0.14
142 | GTTCGCTA | -0.0318
143 | ATTCATGC | 0.137
144 | ACCCTGAA | 0.0664
145 | AGCAACGA | 0.0712
146 | TCGCTCAA | 0.0959
147 | TCGCAAAA | 0.115
148 | GGCGATAC | -0.118
149 | CCAGGGGA | -0.0964
150 | CTTACCGA | -0.0109

Row | Sequence | PBM E-score
151 | AAGCATGA | 0.0507
152 | TCGCGACA | 0.0485
153 | AGAATTTA | 0.159
154 | TCGTTTAA | 0.155
155 | AATGATGA | 0.135
156 | CTGGGATA | -0.0846
157 | AACCTCAC | 0.0575
158 | CCACCACG | -0.0423
159 | GCCAAGCC | -0.167
160 | CCAGTCTC | -0.15
161 | ACTGCGCT | 0.0133
162 | TCGTACCA | -0.0257
163 | ACGGATTA | 0.0543
164 | AATGTGAA | 0.212
165 | CTAAACCA | -0.00415
166 | ATATCATC | 0.141
167 | ATAGGGAC | -0.141
168 | GCCTCGAA | 0.0608
169 | TAGGCCTA | -0.15
170 | GCGTTGCA | -0.0206
171 | AAAGCCTG | -0.0934
172 | GCTACCAA | -0.104
